Our source for the activation values is PubChem BioAssay AID1346428 (National Center for Advancing Translational Sciences (NCATS), 2018).

Molecules are shown by their SMILES. Several values for one entry are separate records, joined by “and”; a condition that tells them apart may be missing. Equal values may be shown once. The whole screen tested about 48,000 compounds, of which about 1,200 (2.5%) were called active. Another 2% or so got no clear call; they are omitted.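 How the source made its calls: active means activation of at least 60% and not above a set upper limit (about 1 call in 100 departs from these limits); inconclusive means activation of 40% to 60%, or above that upper limit; inactive means activation under 40%.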 Some of the results follow.

Chain of UniProt O75388 (O75388 whole entry, looked up, the tested form may be a part): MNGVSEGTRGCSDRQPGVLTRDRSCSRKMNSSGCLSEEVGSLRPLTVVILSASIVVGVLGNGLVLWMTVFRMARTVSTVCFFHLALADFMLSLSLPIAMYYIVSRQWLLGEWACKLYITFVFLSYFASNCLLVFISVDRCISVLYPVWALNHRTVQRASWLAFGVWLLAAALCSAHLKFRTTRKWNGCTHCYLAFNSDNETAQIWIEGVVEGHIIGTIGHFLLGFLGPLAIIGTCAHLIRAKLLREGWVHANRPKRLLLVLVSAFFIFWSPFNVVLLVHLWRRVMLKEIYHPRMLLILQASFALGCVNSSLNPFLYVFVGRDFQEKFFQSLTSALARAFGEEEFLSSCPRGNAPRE

This assay deals with Probable G-protein coupled receptor 32 (Homo sapiens) (UniProt O75388). Briefly: qHTS for Agonists of Human Resolvin D1 Receptor DRV1. The following applies: CHO-K1 GPR32 beta-arrestin PathHunter luminescence, 90 min; at 76.9 µM; stronger effect = higher value; zero percent set by DMSO-only wells. In outline:
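PathHunter enzyme-fragment complementation, CHO-K1 GPR32 stable line; 2,500 cells/well, overnight attach; cpd 90 min 37 °C 5% CO2; detection reagent 1 h RT; chemiluminescence. DMSO = EC0.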
In general terms: Quantitative high-throughput screening tests each substance at several concentrations.
With `Cc1ccc(CNC(=O)CCCn2nc(C)c3c(C)n(-c4ccccc4)nc3c2=O)cc1`, the activation was inactive: -7.64%. Under `CCc1cccc(NS(=O)(=O)c2ccc3c(c2)n(C)c(=O)c(=O)n3C)c1` stands inactive: -5.33%; under `CCOCCn1ccc2c(OCC(=O)NCc3ccc(C)cc3)cccc2c1=O`, inactive: -7.09%; under `Cc1ccccc1NC(=O)CSc1nnc(COc2ccc(Cl)cc2)o1`, inactive: 1.5%. The value for `COc1ccc(-c2cn3nc(N4CCCC(C(=O)Nc5cccc(Cl)c5C)C4)sc3n2)cc1` (stereo not drawn) was inactive: -10.3%; that for `CCCSc1ncc(Cl)c(C(=O)NCc2ccc(OC)cc2)n1` was inactive: -16.8%.

Take `CN(C)CCNC(=O)c1ccc2c(c1)N(Cc1ccccc1)C(=O)c1ccccc1S2(=O)=O`: the activation was inactive: -23%. Under `COCCCNC(=O)N1[C@H](c2cccs2)[C@@H](C)C(=O)[C@@H](C)[C@@H]1c1cccs1` stands inactive: -20.1%; under `O=C1c2[nH]nc(-c3ccccc3O)c2C(c2cccc(O)c2)N1Cc1ccncc1` (stereo not drawn), inactive: -14.6%; under `O=C(Cn1cc(C(=O)c2ccncc2)c(=O)c2cc(F)ccc21)Nc1ccc(Cl)cc1`, inactive: -29.1%.

Consider `Cc1ccc(O)c(NC(=O)c2noc3c2CCCC3)c1`, for which the activation is inactive: 27%. The value for `COc1ccccc1CNC(=O)CCn1c(=O)c2ccccc2n(CC(=O)Nc2ccc(Br)cc2F)c1=O` was inactive: -8.63%; that for `COc1cccc(-n2cc(C(=O)OCc3ccc(F)c(F)c3)c3ccccc3c2=O)c1` was inactive: -9.3%. The value for `Cc1ccc2c(c1)N(S(=O)(=O)c1cc(-c3onc(C)c3C)ccc1C)CCO2` was inactive: 12.7%; that for `O=C(CN1C(=O)COc2ccc(S(=O)(=O)N3CCCC3)cc21)N1CCN(c2ccc(Cl)cc2)CC1` was inactive: -6.11%; that for `CCCCNc1nc2c(c(=O)n(C)c(=O)n2C)n1CC(O)COc1ccccc1C` (stereo not drawn) was active: 66.6%.

Regarding `Cc1ccc2nc(-c3cccc(NC(=O)c4ccc(Br)o4)c3)oc2c1`, the activation is inactive: 16.3%. `CCOc1ccccc1-n1nnc(-c2nc(-c3ccccc3C)no2)c1C`: the activation is inactive: -1.29%.

In the case of `COc1ccc(C(=O)Nc2nnc(S(=O)(=O)N3CCCc4ccccc43)s2)cc1`, the activation was inactive: 26.3%.

In the case of `Cc1ccc(C(=O)Nc2nc3n(n2)C(c2ccc(F)cc2)C=C(c2ccccc2)N3)cc1` (stereo not drawn), the activation was inactive: 6.3%. Under `C=C1C(=O)O[C@@H]2[C@H]3O[C@]3(C)CCC=C(C)CC[C@@H]12` stands inactive: -19%; under `Cc1nn(C)c2c1c(C(F)(F)F)cc(=O)n2CC(=O)N1CCCCC1`, inactive: 25.6%. The value for `CCOC(=O)c1c(NC(=O)c2ccc(Br)cc2)sc2c1CCCC2` was inactive: -3.91%; that for `Cc1ccc(Cl)cc1NC(=O)N1CCC(CN2CCCCCC2)CC1` was inactive: -10.1%. Under `Cc1ccc(NC(=O)CSc2ccc3nnc(CCNS(=O)(=O)c4ccccc4)n3n2)cc1Cl` stands inactive: 1.6%. In the case of `Cc1ccccc1NC(=O)c1cccc2c(=O)c3c([nH]c12)CCCC3`, the activation was inactive: 31.1%.

With `Cc1ccc2cc(CN(C)C(=O)c3cccc(Cl)c3)c(=O)[nH]c2c1`, the activation is inactive: -5.86%. Under `Cc1ccc([N+](=O)[O-])cc1S(=O)(=O)N1CCn2cccc2C1c1ccccc1` (stereo not drawn) stands inactive: -5.33%; under `CCOc1ccc(-n2nc(CO)c(C(=O)NCc3cccs3)n2)cc1`, inactive: -3.31%.

For the compound `CCn1cc(C(=O)N2CCN(c3cc(C)ccc3C)CC2)c(=O)c2cc(S(=O)(=O)N3CCCCC3)ccc21`, the activation was inactive: -8.07%. In the case of `Cc1nc(SC(C)C(=O)Nc2ccccc2Cl)cc(-c2ccccc2)n1` (stereo not drawn), the activation is inactive: -20.2%.

Regarding `COc1ccc(N2CCN(Cc3cccn3-c3nnc(N4CCN(C5CCCCC5)CC4)s3)CC2)cc1`, the activation was inactive: 4.45%.

As for `CC(Oc1ccc(Br)cc1)C(=O)Nc1ncn[nH]1` (stereo not drawn), the activation is inactive: -7.11%. Under `Cc1ccc(C)c(NC(=O)C2CCCN(S(=O)(=O)c3cn(C)cn3)C2)c1` (stereo not drawn) stands inactive: -2.41%; under `CC(N)C(=O)OC(C)(C)Cc1ccc(Cl)cc1` (stereo not drawn), inactive: -46% and inactive: -14.6%.

Regarding `Cc1ccc2nc(-c3ccc(Cl)c(NC(=O)COc4ccc(C(C)C)cc4)c3)oc2c1`, the activation is inactive: 3.19%.

Consider `COc1ccc(NC(=O)CCc2nnc3n(Cc4ccccc4Cl)c(=O)c4ccccc4n23)cc1`, for which the activation is inactive: 2.3%. `Cc1ccc(N2C(=O)N(Cc3cc(=O)n4ccccc4n3)c3ccccc3S2(=O)=O)cc1Cl`: the activation was inactive: -9.7%. Under `CCOc1ccccc1CNC(=O)Cn1cc2c(n1)-c1c(oc(C(=O)N3CCCC3)c1C)CC2` stands inactive: -29.8%. Under `CCNc1cc(N2CCN(C3CCCCC3)CC2)c2noc3c2c1C(=O)c1ccccc1-3` stands inactive: 10.3%; under `Cc1ccc(S(=O)(=O)N2CCN(Cc3nc4ccc(C)cc4o3)CC2)cc1`, inactive: -2.24%; under `O=C(Cn1cc(S(=O)(=O)c2ccccc2)c(=O)c2cc3c(cc21)OCO3)Nc1ccc(Cl)cc1`, inactive: -16.2%.

With `O=C(CS(=O)(=O)c1cccc2nsnc12)N1CCN(c2cccc(C(F)(F)F)c2)CC1`, the activation is active: 88.5%. For `COc1ccc(Br)cc1CNC(=O)CCSCc1ccc(C)cc1`, the activation is inactive: -29.2%. The value for `CSc1ccc(CCNC(=O)c2ccc(-c3nc(COc4ccc(C)cc4)c(C)o3)cc2)cc1` was inactive: 22.6%; that for `CCOC(=O)CSc1nc2ccccc2c(=O)n1-c1cccc(C)c1` was inactive: -18.3%; that for `COc1ccc(C(=O)Nc2ccccc2SCc2cc(=O)c3cccc(C)c3[nH]2)cc1` was inactive: 8.23%.

As to `COC(=O)c1ccccc1NC(=O)C1=C(C)C(=O)OC12CCCCCC2`, the activation is inactive: -31.9%. Under `O=C(O)Cc1ccc(NC2(c3ccccc3)C(=O)c3ccccc3C2=O)cc1` stands inactive: -2.61%; under `COc1ccc(S(=O)(=O)NCCS(=O)(=O)N2CCN(c3ccccc3)CC2)cc1C`, inactive: 11.6%.

On to `O=C(O)Cc1sc(Nc2ccccc2)nc1-c1ccccc1`, for which the activation is inactive: 7.25%.

Take `CCOC(=O)c1ccc(-n2c(-c3ccc(C)cc3)c(C)n3c4c(=O)n(C)c(=O)n(C)c4nc23)cc1`: the activation was inactive: 5.25%.

Turning to `COc1ccc(-c2cc(-c3ccc4c(c3)NC(=O)CO4)nc3c2COc2ccc(F)cc2-3)cc1`, the activation is inactive: 17.1%.
